In PubChem BioAssay AID1240 (Sanford-Burnham Center for Chemical Genomics, 2008):
About 800 (1.6%) of roughly 50,000 compounds showed an effect of 50% or more. The list shows a part of the results.

Target: Bcl-2-like protein 10 (Homo sapiens) (UniProt Q9HD36)
Experiment: Phenotype converters, Bcl-B/TR3 peptide binding displacement, primary biochemical FP (AID 1240);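 also: 0% = Bcl-B with tracer peptide and DMSO and 100% = tracer peptide lacking Bcl-B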
Conditions: GST-Bcl-B / FITC-TR3 peptide fluorescence polarization; stronger effect = higher value; compound at 3.75 mg/L

Sequence of UniProt Q9HD36 (Q9HD36 whole entry, looked up): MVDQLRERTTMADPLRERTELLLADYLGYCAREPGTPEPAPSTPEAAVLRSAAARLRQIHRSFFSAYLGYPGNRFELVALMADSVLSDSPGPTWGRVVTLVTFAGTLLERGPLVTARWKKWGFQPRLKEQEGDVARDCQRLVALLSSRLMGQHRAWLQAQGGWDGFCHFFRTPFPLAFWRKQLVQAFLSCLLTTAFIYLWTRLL

| Compound | displacement [%] |
| --- | --- |
| NC(=O)c1ccccc1NC(=O)c1cc(Cl)ccc1Cl | -2.9 |
| COc1ccccc1C(=O)Nc1cc(-c2nc3cc(Cl)ccc3o2)ccc1C | 24.1 |
| CC(=O)Nc1ccc(S(=O)(=O)NCCc2ccc(S(N)(=O)=O)cc2)cc1 | 18.6 |
| N#CSC(C#N)Cc1ccc([N+](=O)[O-])cc1 (stereo not given) | 3 |
| COC(=O)c1ccccc1NC(=O)c1c(Cl)cccc1Cl | 11.4 |
| COc1cccc(/C=C2\SC(=S)N(c3cccc(C)c3)C2=O)c1 | 14.9 |
| Cc1ccccc1NC(=O)c1c(NC(=O)c2ccc([N+](=O)[O-])cc2)sc2c1CCC2 | 23.3 |
| N#CC(C#N)=Cc1ccc(-c2ccc(S(N)(=O)=O)cc2)o1 | -0.4 |
| CCN(CC)C(=O)c1c(-c2ccccc2)noc1C | -4.1 |
| Cc1ccc(/C(O)=C2\C(=O)C(=O)N(c3nccs3)C2c2cccs2)cc1 (stereo not given) | 17.3 |
| CC1=C(C(=O)Nc2ccc(Cl)cc2)C(c2ccccc2F)NC(=S)N1 (stereo not given) | -11.6 |
| O=C(COc1ccccc1)N1N=C(c2ccccc2)CC1(O)C(F)(F)F (stereo not given) | -10.8 |
| CCCn1c(/N=C/c2cccs2)nc2ccccc21 | 6.8 |
| O=c1[nH]c(N2CCCCCC2)nc2ncn(Cc3ccccc3)c12 | -2.9 |
| CC(C)Oc1ccccc1/C=C/c1nc(O)c([N+](=O)[O-])c(=O)[nH]1 | -12.3 |
| O=C(Nc1ccc2c(c1)OCCO2)c1cc2ccccc2o1 | -6.3 |
| Cc1ccc(Cc2cnc(NC(=O)c3ccccc3)s2)cc1 | 9.2 |
| COC(=O)c1ccccc1Nc1ccn2c(=O)c3ccccc3nc2n1 | 17.6 |
| COc1ccc(/C=C2\SC(N3CCCCCC3)=NC2=O)c(OC)c1 | -4.9 |
| CC(=O)Nc1cccc(/C(C)=N/N=C2/NC(=O)C(CC(=O)Nc3ccc(Cl)cc3Cl)S2)c1 (stereo not given) | -6.3 |
| CC1=NN(c2nc(-c3ccc(Br)cc3)cs2)C(=O)/C1=C\c1ccc2c(c1)OCO2 | 9 |
| Cc1cc(OCc2nc(-c3ccncc3)no2)ccc1Br | 11.4 |

| Compound | displacement [%] |
| --- | --- |
| N/C(=N\OC(=O)c1ccc(F)cc1)c1ccncc1 | -16.6 |
| O=C(CSCc1ccc(Br)cc1)Nc1ccc(I)cc1 | 3.8 |
| CCOc1ccccc1/C=C1/SC(=S)N(NC(=O)c2ccccc2C)C1=O | 1.4 |
| CCOC(=O)c1ccccc1NC(=O)c1cnn2c1NC(c1ccccc1)CC2C(F)(F)F (stereo not given) | -3.1 |
| CCOC(=O)C1=C(C)N(C2CCCCC2)C(=O)C1 | 5.4 |
| COc1ccc(N(CC(=O)N2CCCC2)S(=O)(=O)c2ccc(C)cc2)c(OC)c1 | -3.4 |
| CCCC(=O)c1ccc(N2CCN(C(=O)c3cccs3)CC2)c(F)c1 | -2.9 |
| Cc1nn(C)c(C)c1Sc1ccc(Br)cc1 | -8.7 |
| CCOC(=O)c1c(NC(=O)c2ccc(Cl)cc2)sc(C(=O)Nc2ccc3c(c2)OCO3)c1C | -8.9 |
| O=C1NC(=O)N(c2cccc(F)c2)C(=O)/C1=C/c1ccc(O)c(Cl)c1 | 8.3 |
| Cc1cc(-c2ccccc2)nc(N/N=C/c2c(O)ccc3ccccc23)n1 | -11.6 |
| O=C(C1CCCO1)N1CCN(C(c2ccccc2)c2ccccc2)CC1 (stereo not given) | -3 |
| Cc1[nH]n(-c2ccccc2)c(=O)c1C=Nc1cccc(Br)c1 | -4.4 |
| COc1ccc(C(=O)/C=C/c2ccco2)cc1OC | 5.9 |
| O=C(NCCCn1ccnc1)C(=O)Nc1ccc(Br)cc1 | 11.6 |
| O=C(Nc1ccc(Cl)c(Cl)c1)C1C(c2ccccc2)C1(Cl)Cl (stereo not given) | 2.8 |
| O=C1/C(=C/c2cc3c(cc2[N+](=O)[O-])OCO3)Sc2ccccc21 | 1.5 |
| CC(C)(C)c1ccc(OCC(=O)NCCO)cc1 | -0.3 |
| O=C(NCCCc1ccccc1)c1ccccc1 | -1.3 |
| COCCNC(=O)c1cnn2c1NC(c1ccc(OC)c(OC)c1)CC2C(F)(F)F (stereo not given) | -1.3 |
| CCOC(=O)C1=C(O)/C(=C/c2ccc(OC)c(OC)c2)SC1=Nc1ccc([N+](=O)[O-])cc1 | 22.8 |
| O=C(Oc1ccccc1C(=S)N1CCOCC1)c1ccc([N+](=O)[O-])cc1 | 14.4 |

| Compound | displacement [%] |
| --- | --- |
| O=C(c1cccnc1)N1CCN(C(=O)c2ccccc2F)CC1 | -0.4 |
| CC(CN1CCCCCC1)C(=O)c1ccccc1 (stereo not given) | 11.2 |
| O=C(Nc1ccc(NS(=O)(=O)c2ccc(Cl)cc2)cc1)c1ccccc1 | 1.7 |
| CCOc1ccc2cc(S(=O)(=O)n3nnc4ccccc43)ccc2c1 | -6.7 |
| Cc1cc(OCC(=O)NCc2ccccc2)cc(C)c1Cl | 10.6 |
| COc1cccc(/C=N/Nc2nc(N3CCCCC3)nc(N3CCCCC3)n2)c1 | 0.9 |
| Cc1cc(C)nc(NC(=O)C2C3C=CC(C3)C2C(=O)O)c1 (stereo not given) | -2.3 |
| CCOC(=O)c1ccc(N2C(=O)CC(Sc3nc4ccc(OCC)cc4s3)C2=O)cc1 (stereo not given) | -5.3 |
| Cc1c(NC(=O)c2cc(-c3ccc(Br)cc3)nc3ccccc23)c(=O)n(-c2ccccc2)n1C | -11 |
| Cc1ccc(C)c(NC2=NC3(CCCC3)N=C(N)N2)c1 | -15.6 |
| COc1ccc(-n2nc3cc(C)c(NC(=O)c4ccc(Br)o4)cc3n2)cc1 | 117 |
| O=C1NC(=Nc2cccnc2)S/C1=C\c1ccc(F)cc1 | 3.5 |
| COC(=O)C1(C(=O)OC)C(CC(C)C)C1(C(=O)OC)C(=O)OC | 15 |
| COc1ccc(/C=C/C(=O)c2cccs2)cc1[N+](=O)[O-] | -11.9 |
| CCOc1ccc(N(CC(=O)Nc2cccc(OC)c2)S(=O)(=O)c2ccc(SC)cc2)cc1 | 3.4 |
| CC(C)c1ccc(NC(=O)CN(c2ccc(Cl)cc2)S(C)(=O)=O)cc1 | 3 |
| O=c1[nH]c2ccccc2c(O)c1-c1cc2ccccc2oc1=O | 4.4 |
| Cc1ccc(NC(=O)CN(c2ccc(Cl)cc2)S(C)(=O)=O)cc1C | -4.1 |
| O=C(NC1CCS(=O)(=O)C1)C12CC3CC(CC(C3)C1)C2 (stereo not given) | 4.5 |
| O=C(N/N=C/c1ccc(Cl)c([N+](=O)[O-])c1)c1ccccn1 | 3.3 |
| CS(=O)(=O)N(CC(=O)NC1CC1)c1ccc(Oc2ccccc2)cc1 | -5.1 |
| O=C(CCCC(=O)Nc1nc2ccccc2s1)Nc1nc2ccccc2s1 | -7.2 |

| Compound | displacement [%] |
| --- | --- |
| O=C1N/C(=N\c2ccccn2)SC1Cc1ccccc1 (stereo not given) | -6.4 |
| COc1cccc(-n2cnc3cccc(N)c32)c1 | 27.3 |
| Cc1cccn2c(=O)c(/C=C3\SC(=S)N(C(C)c4ccccc4)C3=O)c(NCCc3ccccc3)nc12 (stereo not given) | 14.1 |
| NC(=O)NC(=O)c1nc2ccccc2[nH]c1=O | 11.6 |
| CC(C)(C)C(=O)Nc1cccc(C(=O)NCc2ccc(CNC(=O)c3cccc(NC(=O)C(C)(C)C)c3)cc2)c1 | 9.9 |
| CC(=O)c1ccc(NC(=O)CSCC(=O)Nc2ccc3ccccc3c2)cc1 | 14.3 |
| O=C1/C(=C/c2ccc(-c3ccc([N+](=O)[O-])cc3)o2)SC(=S)N1Cc1ccccc1 | 9.4 |
| COc1c(Cl)cc(C(=O)Nc2ccc3oc(-c4ccccc4)nc3c2)cc1Cl | 12.6 |
| CC1=NN(c2cccc(C(=O)O)c2)C(=O)/C1=C\c1ccc(-c2ccc(Cl)c(C(=O)O)c2)o1 | 25.1 |
| CN1CCN(CCOCCOc2ccccc2Br)CC1 | -11.5 |
| O=CNc1ccccc1Oc1ccccc1 | 10.4 |
| COc1cc2c(cc1NC(=O)c1ccccc1I)oc1ccccc12 | -3.9 |
| COC(=O)/C(=C\C(=O)c1ccccc1)Nc1ccccc1 | -11.5 |
| O=C(Nc1cc(Cl)cc(Cl)c1)c1ccc2ccccc2c1 | 4.9 |
| COCCN1C(=O)/C(=C\c2ccc3c(c2)OCO3)C(C(=O)OC)=C1C | -8 |
| S=c1[nH]nc(-c2cccnc2)n1-c1ccccc1 | 0.1 |
| OC(COc1ccc(Cl)cc1)CN1CCCCC1 (stereo not given) | 3.9 |
| Cc1ccccc1CN1CCN(Cc2ccncc2)CC1 | -2.7 |
| O=C(Nc1ccc2nn(-c3ccccc3)nc2c1)c1ccc(I)cc1 | 13.1 |
| Cc1cc(C)c(S(=O)(=O)Nc2cc(Br)c3oc4c(c3c2)C(=O)CCC4)c(C)c1 | 2.6 |
| Cc1cccc(-c2noc(-c3ccc(Cl)cc3Cl)n2)c1 | 1.1 |
| COc1ccc(S(=O)(=O)N2CCN(c3ccccc3)CC2)cc1[N+](=O)[O-] | -6.6 |

| Compound | displacement [%] |
| --- | --- |
| COC(=O)C1=C(C)NC(=O)/C1=C\c1cccc(OC)c1 | 7.8 |
| O=C1c2ccccc2C(=O)N1N1C(=O)c2cccc([N+](=O)[O-])c2C1=O | 15.5 |
| CC(C)(C)C(=O)/C=C(/O)C(=O)NCc1ccccc1 | 2 |
| Cc1ccc(C(=O)Nc2c(C)cc(C)cc2C)cc1 | 9.2 |
| O=C1C=CC(=O)N1c1ccc(SC(F)F)cc1 | 7.6 |
| CN(C)C(=O)c1ccccc1NC(=O)c1ccccc1Cl | 3 |
| O=c1[nH]cc(Cc2ccc(O)cc2)c(=O)[nH]1 | -7.1 |
| COc1ccc(CCNc2cc(N3CCN(S(=O)(=O)c4ccccc4)CC3)ccc2[N+](=O)[O-])cc1OC | 7.5 |
| CCN1C(=O)/C(=C\c2ccccc2Sc2ccc(Cl)cc2)SC1=S | -5.5 |
| Cc1cc(NC(=O)CSc2nnc3c4ccccc4n(C(C)C)c3n2)no1 | 11.1 |
| O=C(Cc1c2ccccc2nc2ccccc12)c1ccccc1 | 11.6 |
| O=C1N/C(=N/N=C/c2ccccc2)SC1Cc1ccc(Cl)cc1Cl (stereo not given) | 1.3 |
| N#Cc1c(-c2ccc(Cl)cc2)cc(C2CC2)nc1SCC(N)=O | 28.9 |
| COc1ccc2c(c1)OCC/C2=N/OC(=O)c1ccc(Cl)cc1 | -9.7 |
| COc1cccc(C(=O)Nc2ccc3oc(-c4cccc(Br)c4)nc3c2)c1 | 12.1 |
| Cc1ccc(OCC(=O)Nc2ccc(Nc3ccccc3)cc2)c(Br)c1 | 26 |
| CCCC1=NN2C(=N)/C(=C/c3ccc(-c4ccc(C(=O)OCC)cc4)o3)C(=O)N=C2S1 | 164 |
| Cc1ccc(C(=O)Nc2c(C(=O)N3CCC(C(N)=O)CC3)cnn2-c2ccccc2)cc1 | 0.9 |
| O=C1/C(=C/c2ccccc2)S/C(=N/N=C/c2ccccc2)N1c1ccc(O)cc1 | 11.8 |
| CC(CNC(=O)c1ccc(F)cc1)CN(C)C (stereo not given) | -3.5 |
| O=C(O)c1cc2nc(-c3ccccc3)cc(-c3ccccc3)n2n1 | -7.1 |
| CCOC(=O)C1CCN(C(=O)c2cc3c(C)nn(-c4ccccc4)c3s2)CC1 | -13.9 |
